# Measurements from the supplement of paper PMC8728848.
# This is one part of the list.
# B1: FaeGac (Escherichia coli) (protein)
# chain: WMTGDFNGSVDIGGSITADDYRQKWEWKVGTGLNGFGNVLNDLTNGGTKLTITVTGNKPILLGRTKEAFATPVTGGVDGIPHIAFTDYEGASVVLRNPDGETNKKGLAYFVLPMKNAEGTKVGSVKVNASYAGVLGRGGVTSADGELLSLFADGLSSIFYGGLPRGSELSAGSAAAERTKLFGSLSRNDILGQIQRVNANITSLVDVAGSYRENMEYTDGTVVSAAYALGIANGQTIEATFNQAVTTSTQWSAPLNVAITYY
# Experiments:
# Experiment in all cases: glycan array binding signal (z-score within array); higher = stronger binding
# Settings in all cases: glycan notation: IUPAC condensed, linker removed
# [1] = target: Fuc(a1-2)Gal
# How it was run: (§1)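 From the Consortium for Functional Glycomics database, 3228 arrays were curated, keeping only those whose protein sequence was available. Binding is given as a within-array Z-score averaged across arrays sharing a protein sequence and across linkers. Negative Z-scores can be read as non-binding.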
# [2] = target: Fuc(a1-2)Gal(b1-3)GalNAc
# How it was run: as §1
# [3] = target: Fuc(a1-2)Gal(b1-3)GalNAc(b1-3)Gal
# How it was run: as §1
# [4] = target: Fuc(a1-2)Gal(b1-3)GalNAc(b1-3)Gal(a1-4)Gal(b1-4)Glc
# How it was run: as §1
# [5] = target: Fuc(a1-2)Gal(b1-3)GalNAc(b1-4)[Neu5Ac(a2-3)]Gal(b1-4)Glc
# How it was run: as §1
# [6] = target: Fuc(a1-2)Gal(b1-3)GlcNAc
# How it was run: as §1
# [7] = target: Fuc(a1-2)Gal(b1-3)GlcNAc(b1-3)Gal(b1-4)Glc
# How it was run: as §1
# [8] = target: Fuc(a1-2)Gal(b1-3)[Fuc(a1-4)]GlcNAc
# How it was run: as §1
# [9] = target: Fuc(a1-2)Gal(b1-4)Glc
# How it was run: as §1
# [10] = target: Fuc(a1-2)Gal(b1-4)GlcNAc
# How it was run: as §1
# [11] = target: Fuc(a1-2)Gal(b1-4)GlcNAc(b1-3)Gal(b1-4)GlcNAc
# How it was run: as §1
# [12] = target: Fuc(a1-2)Gal(b1-4)GlcNAc(b1-3)Gal(b1-4)GlcNAc(b1-3)Gal(b1-4)GlcNAc
# How it was run: as §1
# [13] = target: Fuc(a1-2)Gal(b1-4)[Fuc(a1-3)]GlcNAc
# How it was run: as §1
# [14] = target: Fuc(a1-2)Gal(b1-4)[Fuc(a1-3)]GlcNAc(b1-3)Gal(b1-4)[Fuc(a1-3)]GlcNAc
# How it was run: as §1
# [15] = target: Fuc(a1-2)Gal(b1-4)[Fuc(a1-3)]GlcNAc(b1-3)Gal(b1-4)[Fuc(a1-3)]GlcNAc(b1-3)Gal(b1-4)[Fuc(a1-3)]GlcNAc
# How it was run: as §1
# [16] = target: Fuc(a1-2)GlcNAc
# How it was run: as §1
# [17] = target: Fuc(a1-2)[Gal(a1-3)]Gal
# How it was run: as §1
# [18] = target: Fuc(a1-2)[Gal(a1-3)]Gal(b1-3)GlcNAc
# How it was run: as §1
# [19] = target: Fuc(a1-2)[Gal(a1-3)]Gal(b1-4)Glc
# How it was run: as §1
# [20] = target: Fuc(a1-2)[Gal(a1-3)]Gal(b1-4)GlcNAc
# How it was run: as §1
# [21] = target: Fuc(a1-2)[Gal(a1-3)]Gal(b1-4)[Fuc(a1-3)]GlcNAc
# How it was run: as §1
# [22] = target: Fuc(a1-2)[Gal(a1-4)]Gal(b1-4)GlcNAc
# How it was run: as §1
# [23] = target: Fuc(a1-2)[GalNAc(a1-3)]Gal
# How it was run: as §1
# [24] = target: Fuc(a1-2)[GalNAc(a1-3)]Gal(b1-3)GlcNAc
# How it was run: as §1
# [25] = target: Fuc(a1-2)[GalNAc(a1-3)]Gal(b1-4)Glc
# How it was run: as §1
# [26] = target: Fuc(a1-2)[GalNAc(a1-3)]Gal(b1-4)GlcNAc
# How it was run: as §1
# [27] = target: Fuc(a1-2)[GalNAc(a1-3)]Gal(b1-4)[Fuc(a1-3)]GlcNAc
# How it was run: as §1
# [28] = target: Fuc(a1-2)[GalNAc(a1-4)]Gal(b1-4)GlcNAc
# How it was run: as §1
# [29] = target: Fuc(a1-2)[GalNAc(b1-3)]Gal
# How it was run: as §1
# [30] = target: Fuc(a1-3)GlcNAc
# How it was run: as §1
# [31] = target: Fuc(a1-3)[Gal(b1-4)]GlcNAc
# How it was run: as §1
# [32] = target: Fuc(a1-3)[Gal(b1-4)]GlcNAc(b1-4)Gal(b1-4)[Fuc(a1-3)]GlcNAc
# How it was run: as §1
# [33] = target: Fuc(a1-3)[Gal(b1-4)]GlcNAc(b1-4)Gal(b1-4)[Fuc(a1-3)]GlcNAc(b1-4)Gal(b1-4)[Fuc(a1-3)]GlcNAc
# How it was run: as §1
# [34] = target: Fuc(a1-3)[Gal3S(b1-4)]GlcNAc
# How it was run: as §1
# [35] = target: Fuc(a1-3)[GalNAc(b1-4)]GlcNAc
# How it was run: as §1
# [36] = target: Fuc(a1-4)GlcNAc
# How it was run: as §1
# [37] = target: Fuc(b1-3)GlcNAc
# How it was run: as §1
# [38] = target: Gal(a1-2)Gal
# How it was run: as §1
# [39] = target: Gal(a1-3)Gal
# How it was run: as §1
# [40] = target: Gal(a1-3)Gal(b1-3)GlcNAc
# How it was run: as §1
# [41] = target: Gal(a1-3)Gal(b1-4)Glc
# How it was run: as §1
# [42] = target: Gal(a1-3)Gal(b1-4)GlcNAc
# How it was run: as §1
# [43] = target: Gal(a1-3)Gal(b1-4)[Fuc(a1-3)]GlcNAc
# How it was run: as §1
# [44] = target: Gal(a1-3)GalNAc
# How it was run: as §1
# [45] = target: Gal(a1-3)[Gal(a1-4)]Gal(b1-4)GlcNAc
# How it was run: as §1
# [46] = target: Gal(a1-4)Gal(b1-4)Glc
# How it was run: as §1
# [47] = target: Gal(a1-4)Gal(b1-4)GlcNAc
# How it was run: as §1
# [48] = target: Gal(a1-4)GlcNAc
# How it was run: as §1
# [49] = target: Gal(a1-6)Glc
# How it was run: as §1
# [50] = target: Gal(b1-2)Gal
# How it was run: as §1
# [51] = target: Gal(b1-3)Gal
# How it was run: as §1
# [52] = target: Gal(b1-3)GalNAc
# How it was run: as §1
# [53] = target: Gal(b1-3)GalNAc(b1-3)Gal(a1-4)Gal(b1-4)Glc
# How it was run: as §1
# [54] = target: Gal(b1-3)GalNAc(b1-4)Gal(b1-4)Glc
# How it was run: as §1
# [55] = target: Gal(b1-3)GalNAc(b1-4)[Neu5Ac(a2-3)]Gal(b1-4)Glc
# How it was run: as §1
# [56] = target: Gal(b1-3)GlcNAc
# How it was run: as §1
# [57] = target: Gal(b1-3)GlcNAc(b1-3)Gal(b1-4)Glc
# How it was run: as §1
# [58] = target: Gal(b1-3)GlcNAc(b1-3)Gal(b1-4)GlcNAc
# How it was run: as §1
# [59] = target: Gal(b1-3)[Fuc(a1-4)]GlcNAc
# How it was run: as §1
# [60] = target: Gal(b1-3)[Fuc(a1-4)]GlcNAc(b1-3)Gal(b1-4)GlcNAc
# How it was run: as §1
binder,measurement,setting,value
B1,glycan array binding signal (z-score),[1],0.274
same,glycan array binding signal (z-score),[2],-0.434
same,glycan array binding signal (z-score),[3],-0.645
same,glycan array binding signal (z-score),[4],-0.646
same,glycan array binding signal (z-score),[5],-0.138
same,glycan array binding signal (z-score),[6],-0.654
same,glycan array binding signal (z-score),[7],-0.236
same,glycan array binding signal (z-score),[8],-0.249
same,glycan array binding signal (z-score),[9],-0.19
same,glycan array binding signal (z-score),[10],-0.555
same,glycan array binding signal (z-score),[11],-0.23
same,glycan array binding signal (z-score),[12],-0.359
same,glycan array binding signal (z-score),[13],-0.349
same,glycan array binding signal (z-score),[14],-0.574
same,glycan array binding signal (z-score),[15],-0.161
same,glycan array binding signal (z-score),[16],-0.442
same,glycan array binding signal (z-score),[17],-0.026
same,glycan array binding signal (z-score),[18],-0.459
same,glycan array binding signal (z-score),[19],-0.644
same,glycan array binding signal (z-score),[20],-0.711
same,glycan array binding signal (z-score),[21],-0.559
same,glycan array binding signal (z-score),[22],0.157
same,glycan array binding signal (z-score),[23],-0.66
same,glycan array binding signal (z-score),[24],-0.599
same,glycan array binding signal (z-score),[25],-0.075
same,glycan array binding signal (z-score),[26],-0.577
same,glycan array binding signal (z-score),[27],-0.748
same,glycan array binding signal (z-score),[28],-0.633
same,glycan array binding signal (z-score),[29],-0.263
same,glycan array binding signal (z-score),[30],0.65
same,glycan array binding signal (z-score),[31],-0.319
same,glycan array binding signal (z-score),[32],0.063
same,glycan array binding signal (z-score),[33],-0.369
same,glycan array binding signal (z-score),[34],-0.548
same,glycan array binding signal (z-score),[35],-0.491
same,glycan array binding signal (z-score),[36],-0.524
same,glycan array binding signal (z-score),[37],-0.272
same,glycan array binding signal (z-score),[38],0.208
same,glycan array binding signal (z-score),[39],-0.711
same,glycan array binding signal (z-score),[40],-0.433
same,glycan array binding signal (z-score),[41],-0.545
same,glycan array binding signal (z-score),[42],-0.716
same,glycan array binding signal (z-score),[43],-0.05
same,glycan array binding signal (z-score),[44],-0.034
same,glycan array binding signal (z-score),[45],-0.563
same,glycan array binding signal (z-score),[46],-0.179
same,glycan array binding signal (z-score),[47],0.397
same,glycan array binding signal (z-score),[48],-0.178
same,glycan array binding signal (z-score),[49],0.975
same,glycan array binding signal (z-score),[50],0.274
same,glycan array binding signal (z-score),[51],1.14
same,glycan array binding signal (z-score),[52],0.886
same,glycan array binding signal (z-score),[53],0.052
same,glycan array binding signal (z-score),[54],0.323
same,glycan array binding signal (z-score),[55],-0.107
same,glycan array binding signal (z-score),[56],-0.462
same,glycan array binding signal (z-score),[57],0.4
same,glycan array binding signal (z-score),[58],-0.702
same,glycan array binding signal (z-score),[59],-0.136
same,glycan array binding signal (z-score),[60],-0.606
